{"source": "PubChem BioAssay AID463173", "about": "(ICCB-Longwood Screening Facility, Harvard Medical School, 2010)", "note": "About 4,300 (8.3%) of roughly 52,000 compounds were called active. Cut-off read from the data, not from the text of the source: active = survival mostly below about 52% (no sharp cut-off); inactive = mostly above about 56%. Some of the results follow.", "data": [{"test_system": "DeltatarO mutant", "assay": "growth inhibition of S. aureus wild type versus tarO mutant, primary screen, teichoic acid synthesis inhibitors, RN4220, OD600 (AID 463173)", "conditions": "OD600, 18 h, stronger effect = lower value, screened at 18.75 µg/mL (by protocol)", "values": [{"smiles": "Cc1ccc(CNS(=O)(=O)c2cc(Br)cc3c2N(C(=O)C2CC2)CC3)cc1", "survival": "inactive: 55%"}, {"smiles": "Cc1cccc2c(=O)cc(CSCC(=O)Nc3ccc(Cl)cc3)[nH]c12", "survival": "inactive: 100%"}, {"smiles": "CCOc1ccc(C(=O)Nc2ccc(-c3nnc4n3CCCCC4)cc2)cc1OCC", "survival": "inactive: 69%"}, {"smiles": "Cc1ccc(Cn2c(=O)n(Cc3ccccc3)c(=O)c3c(C)c(C)sc32)cc1", "survival": "inactive: 81%"}, {"smiles": "Cc1ccc(CNC(=O)C(=O)NCC(c2ccco2)S(=O)(=O)c2ccc(C)cc2)cc1", "note": "(stereo unspecified)", "survival": "inactive: 73%"}, {"smiles": "CCOC(=O)Cn1c(=O)n(C2CCCCC2)c2nc(-c3ccc(OC)cc3)nc(C(N)=O)c21", "survival": "inactive: 77%"}, {"smiles": "CC(C)(C)n1cnc2cc(NS(=O)(=O)c3ccccc3)ccc21", "survival": "inactive: 86%"}, {"smiles": "COc1ccc(Cc2nc3ccc(C(=O)NCCc4ccc(OC)c(OC)c4)cc3o2)cc1", "survival": "inactive: 77%"}, {"smiles": "Cc1cc(C)c(S(=O)(=O)Nc2cc(Cl)c3oc4c(c3c2)C(=O)CCC4)cc1C", "survival": "inactive: 69%"}, {"smiles": "Cn1c(=O)n(C)c2cc(CNCc3ccccc3)ccc21", "survival": "inactive: 88%"}, {"smiles": "Cc1oc(-c2ccc(Cl)cc2)nc1CN1CCCC(C(=O)NCCc2ccccc2)C1", "note": "(stereo unspecified)", "survival": "active: 44%"}, {"smiles": "N/C(CN1CCCC1=O)=N\\O", "survival": "inactive: 87%"}, {"smiles": "CCc1cccc(C)c1NC(=O)c1cc(S(=O)(=O)N2CCC3(CC2)OCCO3)ccc1F", "survival": "inactive: 116%"}, {"smiles": "COc1ccc(C2CC(=O)c3cc(-c4nc(-c5cccc([N+](=O)[O-])c5)cs4)c(=O)n(-c4ccc(F)cc4)c3C2)cc1", "note": "(stereo unspecified)", "survival": "inactive: 51%"}, {"smiles": "COc1cccc(/C=N/NC(=O)CSCc2ccccc2)c1O", "survival": "inactive: 69%"}, {"smiles": "CC(=O)c1ccc(NC(=O)CSc2c(C(C)C)cnc3c2c(=O)n(C)c(=O)n3C)cc1", "survival": "inactive: 85%"}, {"smiles": "Cc1ccc(S(=O)(=O)N2CCCc3cc(NS(=O)(=O)c4ccc(C)c(C)c4)ccc32)cc1", "survival": "inactive: 67%"}, {"smiles": "CC(C)(C)C(=O)Nc1nc2nc(-c3ccccc3)cc(=O)n2[nH]1", "survival": "inactive: 66%"}, {"smiles": "CCCCNC(=O)CN1C(=O)c2c(c3ccccc3n2C)C1c1ccc(OC)cc1", "note": "(stereo unspecified)", "survival": "inactive: 82%"}, {"smiles": "Cc1ccc2oc(-c3cccc(NC(=O)c4ccc(N5CCC(C)CC5)c([N+](=O)[O-])c4)c3)nc2c1", "survival": "inactive: 122%"}, {"smiles": "COc1ccc(Nc2nc(Nc3ccc(OC)cc3OC)nc(N3CCOCC3)n2)c(OC)c1", "survival": "active: 14%"}, {"smiles": "COc1ccc(-c2nc(C)c(CCNS(=O)(=O)c3ccc(F)cc3)s2)cc1OC", "survival": "inactive: 96%"}, {"smiles": "CCc1ccc2[nH]c(=O)c(C(c3nnnn3C(C)(C)C)N3CCc4ccccc43)cc2c1", "note": "(stereo unspecified)", "survival": "inactive: 96%"}, {"smiles": "COC(=O)c1ccccc1NC(=O)c1cn2c3c(ccc(Cl)c3c1=O)OC(C)C2", "note": "(stereo unspecified)", "survival": "inactive: 84%"}, {"smiles": "CC(C)c1ccc(CN(Cc2ccco2)c2cnc(S(C)(=O)=O)nc2C(=O)Nc2ccccc2)cc1", "survival": "active: 44%"}, {"smiles": "CCCCNC(=O)C1CCN(c2nc3ccc(C)cc3[nH]2)CC1", "survival": "inactive: 91%"}, {"smiles": "O=C(Cn1c(=O)n(Cc2ccc(C(=O)NCc3ccc4c(c3)OCO4)cc2)c(=O)c2ccccc21)Nc1ccc(F)cc1F", "survival": "inactive: 88%"}, {"smiles": "COc1ccc(C2(N3CCN(c4cccc(C)c4C)CC3)C(=O)c3ccccc3C2=O)cc1", "survival": "inactive: 83%"}, {"smiles": "Cc1c(-c2nnc(SCC(=O)Nc3ccc(Br)cc3)o2)nnn1-c1ccc(F)cc1", "survival": "inactive: 96%"}, {"smiles": "COC(=O)c1ccn(-c2nc(-c3ccc(Cl)cc3)cc(C(F)(F)F)n2)n1", "survival": "active: 13%"}, {"smiles": "O=C(CS(=O)(=O)c1cccc2nsnc12)N1CCN(c2ccccc2)CC1", "survival": "inactive: 105%"}, {"smiles": "CCOc1ccc(CNCCSc2nnnn2C)cc1OC", "survival": "inactive: 65%"}, {"smiles": "Cc1ccc(-n2ncc3c(N4CCN(c5ccc(F)cc5)CC4)ncnc32)cc1", "survival": "inactive: 94%"}, {"smiles": "COc1ccc2oc(-c3ccc(NC(=O)c4ccc(Cl)cc4Cl)cc3)nc2c1", "survival": "inactive: 62%"}, {"smiles": "COc1ccc(CNC(=O)C(=O)Nc2cccc(C)c2C)cc1", "survival": "inactive: 61%"}, {"smiles": "O=c1c(-c2cc(-c3ccccc3)nc3c2COc2ccccc2-3)coc2ccc(Cl)cc12", "survival": "inactive: 133%"}, {"smiles": "COc1ccc(C)cc1NC(=O)c1c(C)nc2ccccn12", "survival": "inactive: 69%"}, {"smiles": "CC1CC(NNc2ccc(Br)cc2)NC(=S)N1", "note": "(stereo unspecified)", "survival": "inactive: 91%"}, {"smiles": "CCc1ccc(NC(=O)C2CCCN(c3nnc(C)c4c(C)n(-c5ccccc5)nc34)C2)cc1", "note": "(stereo unspecified)", "survival": "inactive: 81%"}, {"smiles": "O=C(Nc1cc(Cl)ccc1Cl)c1cc(S(=O)(=O)N2CCc3ccccc3C2)ccc1F", "survival": "inactive: 88%"}, {"smiles": "COc1cc(NC(=O)CCS(=O)(=O)c2ccc3c(c2)n(C)c(=O)c(=O)n3C)cc(OC)c1", "survival": "inactive: 88%"}, {"smiles": "Cc1cccc(NC(=O)N2CCN3CCCCC3C2)c1C", "note": "(stereo unspecified)", "survival": "inactive: 77%"}, {"smiles": "COc1cccc(NC(=O)Cn2c(-c3nonc3N)nc3ccccc32)c1", "survival": "inactive: 78%"}, {"smiles": "COc1ccccc1N1CCN(c2csc3ccccc3c2=O)CC1", "survival": "inactive: 67%"}, {"smiles": "CCc1ccc(Sc2cc(C(=O)NCCCN3CCC(C)CC3)c3ccccc3n2)cc1", "survival": "inactive: 77%"}, {"smiles": "N#CC(C#N)=C(C#N)c1cc2c([nH]1)CCCC2", "survival": "inactive: 81%"}, {"smiles": "COC(=O)c1cc2oc3ccccc3c2n1Cc1ccccc1Cl", "survival": "inactive: 72%"}, {"smiles": "CCOc1ccc(/C=C/c2nc(C#N)c(N3CCC(C)CC3)o2)cc1", "survival": "inactive: 98%"}, {"smiles": "COc1ccccc1CNC(=O)CCCCn1c(=O)c2ccccc2n(CC(=O)Nc2cccc(Cl)c2)c1=O", "survival": "inactive: 81%"}, {"smiles": "COCCNC(=O)CN1C(=O)COc2ccc(S(=O)(=O)N3CCCC3)cc21", "survival": "inactive: 124%"}, {"smiles": "CCN(CC)CCOC(=O)c1ccc(NC(=O)c2cc3cc(OC)ccc3oc2=O)cc1", "survival": "inactive: 73%"}, {"smiles": "CCOC(=O)N1CCc2c(sc3c2C(=O)NC(c2ccc(C(=O)OC)cc2)N3)C1", "note": "(stereo unspecified)", "survival": "inactive: 64%"}, {"smiles": "CCc1ccc(NC(=O)Cn2c(=O)n(CCCC(=O)NCCc3ccc(OC)c(OC)c3)c(=O)c3ccccc32)cc1", "survival": "inactive: 77%"}, {"smiles": "CC(C)C(=O)c1cn(CC(=O)N2CCCC2)c2ccccc12", "survival": "inactive: 90%"}, {"smiles": "CCOc1ccc(Sc2cc(C(=O)NCc3ccccc3Cl)c3ccccc3n2)cc1", "survival": "inactive: 95%"}, {"smiles": "Cc1ccc(CNS(=O)(=O)c2ccc3c(c2)CC(C)N3C(=O)C2CCC2)cc1", "note": "(stereo unspecified)", "survival": "inactive: 69%"}]}]}
